Measured values published in PubChem BioAssay (NCATS).
Where “and” joins values, the source holds several entries; their conditions need not be identical. Equal entries are not always repeated. The shares of active, inactive and inconclusive entries below differ from those in the screen. Potencies beside an inconclusive call are fits to weak or partial responses and may not hold up. Calls of active or inactive are those of the source. Unless noted, the call rests on the fitted dose curve; in most records, active means well fitted curve in the direction sought with a large enough effect; inconclusive means small, poorly fitted or top-dose-only effect, or another doubt; inactive means no such curve, though single readings can be large; an effect the other way counts as inactive or inconclusive.

Columns and labels:
[1] = target: Aldehyde dehydrogenase, mitochondrial (Homo sapiens) (UniProt P05091); assay: qHTS for Inhibitors of the Aldehyde Dehydrogenase Family (ALDH2) Confirmatory screens (AID 2061303; active means well fitted inhibition curve with a large enough effect; inconclusive means small, poorly fitted or top-dose-only effect; inactive means no such curve, though single readings can be large or run the other way; title and protocol of this record describe different tests; further: nearly all actives have a fitted effect of over 45% in size; on activity change, negative = inhibition: on the % scale 0 is the no-effect control and ±100 the full control effect); settings: ALDH inhibition qHTS; activity change, negative = inhibition: at 45.4 µM (top of the series)
[2] = target: Aldehyde dehydrogenase, mitochondrial (Homo sapiens) (UniProt P05091); assay: qHTS for Inhibitors of the Aldehyde Dehydrogenase Family (ALDH2) Primary screen (AID 2061308); settings: ALDH2 enzyme inhibition qHTS, 1536-well; series mostly up to 56 µM; further: nearly all actives have a fitted effect of over 55% in size;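 on activity change, negative = inhibition: plate controls were vehicle for no effect and reference inhibitor for full effect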
[3] = target: Retinaldehyde dehydrogenase 3 (Homo sapiens) (UniProt P47895); assay: qHTS for Inhibitors of the Aldehyde Dehydrogenase Family (ALDH1A3) Confirmatory screens (AID 2061311); settings: ALDH inhibition qHTS; activity change, negative = inhibition: at 46 µM (top of the series); series mostly up to 46 µM; further: nearly all actives have a fitted effect of over 60% in size; on activity change, negative = inhibition: on the % scale 0 is the no-effect control and ±100 the full control effect
[4] = target: Retinal dehydrogenase 2 (Homo sapiens) (UniProt O94788); assay: qHTS for Inhibitors of the Aldehyde Dehydrogenase Family (ALDH1A2) Confirmation screens (AID 2061314); settings: ALDH1A2 enzyme inhibition qHTS confirmation; activity, negative = inhibition: at 45.9 µM (top of the series) unless noted; series mostly up to 45.9 µM; further: nearly all actives have a fitted effect of over 65% in size; on activity, negative = inhibition: on the % scale 0 is the no-effect control and ±100 the full control effect
[5] = target: Aldehyde dehydrogenase 1A1 (Homo sapiens) (UniProt P00352); assay: qHTS for Inhibitors of the Aldehyde Dehydrogenase Family (ALDH1A1) Confirmatory screens (AID 2061316); settings: ALDH inhibition qHTS; activity change, negative = inhibition: at 47.3 µM (top of the series); series mostly up to 47.3 µM; further: nearly all actives have a fitted effect of over 65% in size; on activity change, negative = inhibition: on the % scale 0 is the no-effect control and ±100 the full control effect
[6] = target: Retinaldehyde dehydrogenase 3 (Homo sapiens) (UniProt P47895); assay: qHTS for Inhibitors of the Aldehyde Dehydrogenase Family (ALDH1A3) Primary screen (AID 2061315); settings: ALDH inhibition qHTS; activity change, negative = inhibition: at 56 µM (top of the series) unless noted;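 on activity change, negative = inhibition: plate controls were DMSO vehicle for no effect and reference inhibitor for full effect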
[7] = target: Retinaldehyde dehydrogenase 3 (Homo sapiens) (UniProt P47895); assay: qHTS for Inhibitors of the Aldehyde Dehydrogenase Family (ALDH1A3) Validation screen (AID 2061312); settings: ALDH1A3 enzyme inhibition qHTS validation, fluorescence; activity change, negative = inhibition: at 84.7 µM (top of the series); further: nearly all actives have a fitted effect of over 45% in size
Potency means the concentration at half of the fitted maximal effect; tags describe the fitted curve by direction and shape.

SMILES	Potency [1]	Potency [2]	Potency [3]	Potency [4]	Potency [5]	Potency [6]	Potency [7]	activity change, negative = inhibition [3]
Cc1cc(NS(=O)(=O)c2ccc(Nc3nc(-c4ccc(C)c(C)c4)cs3)cc2)no1	inconclusive: 12.7 µM [inhibitor, partial curve]	inconclusive: 25.1 µM [inhibitor, partial curve]	inactive	inconclusive: 31.8 µM [inhibitor, partial curve, poor fit]	–	–	–	–
C[C@@H](CO)Nc1cc2c(cc1[S+](=O)([O-])Nc1ccc(Cl)c(Cl)c1)CCC(=O)N2	inconclusive: 12.7 µM [inhibitor, partial curve]	inconclusive: 17.8 µM [inhibitor, partial curve]	inactive	inconclusive: 28.3 µM [inhibitor, partial curve]	inactive	–	–	–
COc1ccnc(NC(=S)N2CCN(c3ccc(Cl)cc3Cl)CC2)c1	inconclusive: 22.4 µM [inhibitor, partial curve, poor fit]	inconclusive: 4.47 µM [inhibitor, full curve]	inconclusive: 6.34 µM [inhibitor, partial curve]	inconclusive: 25.2 µM [inhibitor, partial curve, poor fit]	active: 5.65 µM	inconclusive: 7.08 µM [inhibitor, full curve, poor fit]	–	–
O=C(O)c1ccc2c(c1)C(=O)N(CCc1ccc(O)cc1)C2=O	inconclusive: 12.7 µM [inhibitor, partial curve]	inconclusive: 7.08 µM [inhibitor, partial curve]	inactive	–	inactive	–	–	–
O=c1c(Nc2ccc(Cl)c(Cl)c2)c(Nc2nnc(-c3ccncc3)s2)c1=O	active: 2 µM	inconclusive: 1.78 µM [inhibitor, full curve, poor fit]	active: 11.2 µM	active: 3.98 µM	active: 8.96 µM	–	–	–
C[C@@H](O)c1ccc(-c2ccc3ncnc(NCc4cccs4)c3c2)o1	inconclusive: 17.9 µM [inhibitor, partial curve]	inconclusive: 35.5 µM [inhibitor, single point] and inconclusive: 4.47 µM [inhibitor, partial curve]	inconclusive: 22.5 µM [inhibitor, partial curve]	inconclusive: 22.5 µM [inhibitor, partial curve, poor fit]	inconclusive: 14.2 µM [inhibitor, partial curve, poor fit]	–	–	–
CC(C)(C)OC(=O)N1CCN(c2ccc(NCc3ccc(-c4ccccc4F)o3)cc2)CC1	active: 1.27 µM	inconclusive: 0.316 µM [inhibitor, full curve, poor fit]	inactive	–	inconclusive: 20.1 µM [inhibitor, partial curve, poor fit]	–	–	–
COc1ccc(-c2nc3cccc(OC)c3c(=O)n2Cc2ccccc2)cc1COc1ccc(NC(C)=O)cc1	active: 28.2 µM	inconclusive: 5.01 µM [inhibitor, partial curve, poor fit]	active: 25.1 µM	inconclusive: 11.3 µM [inhibitor, partial curve]	–	inconclusive: 14.1 µM [inhibitor, partial curve, poor fit]	–	–
Cc1cc(N(C)S(=O)(=O)c2ccc(NC(=O)Cc3ccc(Cl)c(Cl)c3)cc2)no1	inconclusive: 22.5 µM [inhibitor, partial curve]	inconclusive: 14.1 µM [inhibitor, partial curve]	inconclusive: 25.2 µM [inhibitor, single point]	inactive	–	inconclusive: 25.1 µM [inhibitor, partial curve, poor fit]	–	–
COc1cccc(-c2ccc(CNc3ccc(N4CCN(C(=O)OC(C)(C)C)CC4)cc3)o2)c1	active: 11.3 µM	inconclusive: 2.82 µM [inhibitor, full curve, poor fit]	inactive	inconclusive: 28.3 µM [inhibitor, partial curve]	inconclusive: 25.2 µM [inhibitor, single point]	–	–	–
COc1cccc(S(=O)(=O)NC2CCN(C#N)C2)c1 (stereo not drawn)	inconclusive: 25.2 µM [inhibitor, partial curve]	inconclusive: 7.94 µM [inhibitor, partial curve]	inactive	inconclusive: 25.2 µM [inhibitor, partial curve, poor fit]	inactive	–	–	–
CO/N=C(/C(=O)N[C@@H]1C(=O)N2C(C(=O)O)=C(Cn3ccc(=N)n3CCO)CS[C@H]12)c1csc(N)n1	inactive	inconclusive: 28.2 µM [inhibitor, single point]	inconclusive: 22.5 µM [inhibitor, partial curve, poor fit]	–	inconclusive: 22.5 µM [inhibitor, partial curve]	–	–	–
O=C1CCCC2=C1C(c1ccccc1Cl)N=C(c1ccccn1)N2 (stereo not drawn)	inactive	inconclusive: 8.91 µM [inhibitor, full curve, poor fit]	inconclusive: 25.2 µM [inhibitor, partial curve]	inconclusive: 20.1 µM [inhibitor, partial curve, poor fit]	inconclusive: 25.2 µM [inhibitor, partial curve]	–	–	–
Cc1ccnc(NC(=S)N2CCN(c3ccc(Cl)cc3Cl)CC2)c1	inconclusive: 25.2 µM [inhibitor, partial curve]	inconclusive: 14.1 µM [inhibitor, partial curve]	inconclusive: 11.3 µM [inhibitor, partial curve]	active: 11.3 µM	active: 7.98 µM	inconclusive: 3.98 µM [inhibitor, full curve]	–	–
O=C1Nc2cc(Cl)ccc2/C1=C\c1cc(Cl)c(O)c(Cl)c1	inconclusive: 11.3 µM [inhibitor, partial curve]	inconclusive: 17.8 µM [inhibitor, partial curve, poor fit]	inactive	active: 25.2 µM	active: 22.5 µM	–	–	–
CCOC(=O)c1cccc(CNc2ccc(N(C)C(=O)Nc3ccccc3)cc2)c1	inactive	inconclusive: 25.1 µM [inhibitor, partial curve]	–	inactive	inactive	inconclusive: 25.1 µM [inhibitor, partial curve]	inconclusive: 17.8 µM [inhibitor, partial curve, poor fit]	–
Cn1nnnc1Sc1ncnc2scc(-c3cnc(N)nc3)c12	inactive	inactive	inactive	inconclusive: 7.12 µM [inhibitor, full curve, poor fit]	inconclusive: 25.2 µM [inhibitor, partial curve]	–	–	–
Cc1ccc(-c2nccc(=O)n2CC(=O)NCCc2ccccc2)cc1	inactive	inactive	inactive	–	inconclusive: 25.2 µM [inhibitor, partial curve]	–	–	–
NC(=O)C1CCN(c2nc(-c3ccc4ccccc4c3)cs2)CC1	inconclusive: 17.9 µM [inhibitor, partial curve]	inconclusive: 5.01 µM [inhibitor, partial curve]	inactive	inactive	inconclusive: 25.2 µM [inhibitor, partial curve]	–	–	–
Cc1ccc(OCCn2c(CCNC(=O)c3ccc([N+](=O)[O-])cc3)nc3ccccc32)cc1	active: 22.5 µM	inconclusive: 12.6 µM [inhibitor, partial curve]	inconclusive: 25.2 µM [inhibitor, single point]	–	active: 17.9 µM	–	–	–
COc1ccc(C2Nc3ccccc3C(=O)N2Cc2ccco2)cc1COc1ccc(N)cc1 (stereo not drawn)	inconclusive: 11.3 µM [inhibitor, partial curve]	inconclusive: 15.8 µM [inhibitor, partial curve, poor fit]	–	active: 4.49 µM	active: 1.79 µM	inactive	–	inactive: -17.5% [at 0.022 µM]
O=S1(=O)N=C(Oc2ccccc2Br)c2ccccc21	inactive	inconclusive: 28.2 µM [inhibitor, partial curve]	inconclusive: 17.9 µM [inhibitor, partial curve]	inconclusive: 28.3 µM [inhibitor, partial curve]	inconclusive: 20.1 µM [inhibitor, partial curve]	inactive	–	–
O=C(Nc1cccc(Cc2ccccc2)c1)c1ccc(-c2cccc([N+](=O)[O-])c2)o1	inconclusive: 25.2 µM [inhibitor, partial curve]	inconclusive: 35.5 µM [inhibitor, single point]	inconclusive: 11.3 µM [inhibitor, partial curve]	active: 12.7 µM	inconclusive: 25.2 µM [inhibitor, single point]	–	–	–
O=[N+]([O-])c1ccc(S(=O)(=O)Nc2cnc3ccccc3c2)cc1	inconclusive: 22.5 µM [inhibitor, partial curve, poor fit]	inconclusive: 7.08 µM [inhibitor, full curve, poor fit]	inconclusive: 31.8 µM [inhibitor, partial curve, poor fit]	inconclusive: 12.7 µM [inhibitor, partial curve]	–	–	–	–
CN1CCN(C(=O)c2cccc(-c3ccc(CNc4ccc(N5CCN(C(=O)OC(C)(C)C)CC5)cc4)o3)c2)CC1	inconclusive: 12.7 µM [inhibitor, partial curve]	inconclusive: 14.1 µM [inhibitor, partial curve, poor fit]	inactive	inconclusive: 28.3 µM [inhibitor, partial curve, poor fit]	inconclusive: 25.2 µM [inhibitor, partial curve]	–	–	–
